Reference: the supplement of paper PMC10126150
Values marked as one replicate rest on one cluster of the flow cell; about a third of the high ones do not repeat.

Test system: ATP
Assay: switch fluorescence ratio, 500 uM ATP over buffer (Cy3 cluster intensity, sum of 5 cycles each) (fold (ratio)); higher = stronger signal-on switching upon ATP binding; sequences stand for … in TCGTCGGCAGCGTCAGATGTGTATAAGAGACAGTTTTTTTTTTTTTTTTTTTTTTTTT…TC
Settings: aptamer strand: ATP DNA aptamer (quencher-CACCTGGGGGAGTATTGCGGAGGAAGG + anchor), 100 nM annealed; ATP concentration: 500 uM; one replicate
Procedure, shortened: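 Per cluster, summed Cy3 intensity from the target cycles was divided by that from the buffer cycles to give the fluorescence ratio, then averaged per switch-domain sequence. Clusters outside 100-1000 RFU were excluded. The Cy3-labelled switching-strand clusters, on a modified Illumina MiSeq flow-cell, were annealed to 100 nM quencher-labelled ATP aptamer and imaged in selection buffer, then after 15 min with 500 uM ATP at 22 °C, for five cycles with NaOH stripping and re-annealing between them.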
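Note: ATP exposure 15 min at 22 °C before imaging.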

Work on GTGGGGTGCG yielded a switch fluorescence ratio of 0.977.
TGACTTATC gave a switch fluorescence ratio of 1.11.
In the case of AGCTAAGTCG, the switch fluorescence ratio is reported as 0.995.
In the case of CGACACATTA, the switch fluorescence ratio is reported as 1.63.
For CCTTCGGTCT, the switch fluorescence ratio was 1.15.
Sequence ATTGAAACAG has a switch fluorescence ratio of 0.954.
In the case of ATGGTGACG, the switch fluorescence ratio is reported as 0.918.
For CGAGAGGGAA, the switch fluorescence ratio was 1.02.
With CTTCGGTCCT the switch fluorescence ratio was 1.07.
TGCGAGCAGC gave a switch fluorescence ratio of 1.11.
Work on GAACTAGTGT yielded a switch fluorescence ratio of 1.03.
For GCTACTCGCT, the switch fluorescence ratio was 1.09.
For TATAGCCTTA, the switch fluorescence ratio was 0.997.
CTCCCAAAT showed a switch fluorescence ratio of 2.
In the case of TATCTTCAAA, the switch fluorescence ratio is reported as 0.989.
Sequence AATAACCGC has a switch fluorescence ratio of 1.19.
TCTTAAGAGG was tested, and the switch fluorescence ratio was 0.981.
In the case of GATGGATAAC, the switch fluorescence ratio is reported as 1.
CAACAACATC was tested, and the switch fluorescence ratio was 0.983.
GATCTAGCAA gave a switch fluorescence ratio of 1.48.
Sequence GCGTCACTGG has a switch fluorescence ratio of 0.986.
Sequence AGTCCAATGG has a switch fluorescence ratio of 1.05.
With AGTGTCACGG the switch fluorescence ratio was 0.932.
In the case of GTCTTACTTG, the switch fluorescence ratio is reported as 0.98.
Work on CGCCCGTTTC yielded a switch fluorescence ratio of 1.04.
In the case of CGGGGCCGGT, the switch fluorescence ratio is reported as 0.974.
Work on CAAGGTCTGC yielded a switch fluorescence ratio of 1.01.
TACATCCAA gave a switch fluorescence ratio of 1.05.
AGGCATCTCA gave a switch fluorescence ratio of 0.997.
CCATGTCGCG showed a switch fluorescence ratio of 1.05.
In the case of CCTGACCGGA, the switch fluorescence ratio is reported as 1.04.
ACTTTAACA gave a switch fluorescence ratio of 1.09.
For CCTTGCAACC, the switch fluorescence ratio was 3.7.
For TCACTTCGTT, the switch fluorescence ratio was 1.
TGTAATGAGT showed a switch fluorescence ratio of 0.986.
GGCTAAAGAC showed a switch fluorescence ratio of 1.05.
For GACCGCAACG, the switch fluorescence ratio was 1.43.
Sequence AGCAACATTC has a switch fluorescence ratio of 1.28.
With TTTCCTGGTT the switch fluorescence ratio was 1.02.
Sequence TTAAGAGTGG has a switch fluorescence ratio of 1.01.
Work on CAATTCGCGC yielded a switch fluorescence ratio of 1.05.
TGTAGGACGA gave a switch fluorescence ratio of 0.982.
GTTAGTAGCG was tested, and the switch fluorescence ratio was 0.951.
For CTTCCACATT, the switch fluorescence ratio was 1.3.
AAATGCATGG showed a switch fluorescence ratio of 0.976.
In the case of TCGTAAAGAT, the switch fluorescence ratio is reported as 1.25.
Work on ACTGGAGTGA yielded a switch fluorescence ratio of 0.992.
With GACACACGCT the switch fluorescence ratio was 1.43.
In the case of ATTTGTCAAA, the switch fluorescence ratio is reported as 0.983.
GAGTATAGTG showed a switch fluorescence ratio of 0.971.
For TTATCAACGT, the switch fluorescence ratio was 1.01.
GAGCCCTGCC gave a switch fluorescence ratio of 1.05.
AGGATCCGTG showed a switch fluorescence ratio of 0.999.
With ACGTCCCGCT the switch fluorescence ratio was 1.05.
ACGCTTGTTG was tested, and the switch fluorescence ratio was 1.02.
Work on TTCCATTTAC yielded a switch fluorescence ratio of 1.15.
ACTTCTTTAC gave a switch fluorescence ratio of 1.13.
Sequence GCGGATAATG has a switch fluorescence ratio of 0.968.
GCGAGGGACT gave a switch fluorescence ratio of 1.01.
TGGGTAGAGG showed a switch fluorescence ratio of 1.01.
In the case of CAGGACTTGA, the switch fluorescence ratio is reported as 0.938.
For AATCGGCCA, the switch fluorescence ratio was 1.04.
AGGGGTT was tested, and the switch fluorescence ratio was 1.02.
Work on GCGAGAATCG yielded a switch fluorescence ratio of 1.01.
With AAAATCCGG the switch fluorescence ratio was 1.01.
In the case of GGGTGGCGCG, the switch fluorescence ratio is reported as 0.977.
CTTTGTCGCG showed a switch fluorescence ratio of 0.92.
CCTGAAAGTT gave a switch fluorescence ratio of 1.11.
ATGGGTTTCC gave a switch fluorescence ratio of 0.994.
Work on GCCTTCGCTG yielded a switch fluorescence ratio of 1.13.
ATAGGTAAA gave a switch fluorescence ratio of 1.05.
CGTACCAAGA was tested, and the switch fluorescence ratio was 1.02.
In the case of GTGAGCGGGA, the switch fluorescence ratio is reported as 1.05.
Sequence TCTGCTTGGT has a switch fluorescence ratio of 0.977.
AATAGGTGGA was tested, and the switch fluorescence ratio was 1.02.
AGCCGCATTT showed a switch fluorescence ratio of 1.38.
Sequence GTTTGCCGA has a switch fluorescence ratio of 1.06.
Work on CATAAATCCT yielded a switch fluorescence ratio of 1.15.
TATCTTATTA gave a switch fluorescence ratio of 1.05.
Sequence ACTCTTCTCC has a switch fluorescence ratio of 2.02.
Work on AGGGAATACT yielded a switch fluorescence ratio of 1.24.
With CTTCATTTTT the switch fluorescence ratio was 0.995.
TGGGCGTGGG showed a switch fluorescence ratio of 0.98.
TGTCATAGTA gave a switch fluorescence ratio of 0.967.
With TTTCCACCCG the switch fluorescence ratio was 1.6.
For CCGCTTTCGC, the switch fluorescence ratio was 2.42.
CGCTATGTGT showed a switch fluorescence ratio of 0.998.
For CAGGTTCAAG, the switch fluorescence ratio was 0.987.
Work on GGTAGCGTA yielded a switch fluorescence ratio of 0.988.
TCGATGTGTG was tested, and the switch fluorescence ratio was 0.998.
With GAATGTAGG the switch fluorescence ratio was 1.02.
ATCTAGGG gave a switch fluorescence ratio of 1.12.
In the case of TATGGGGTA, the switch fluorescence ratio is reported as 1.01.
For GCCTGCGTGC, the switch fluorescence ratio was 1.01.
With CCAGACAAAT the switch fluorescence ratio was 0.992.
Sequence TAGAAATAGA has a switch fluorescence ratio of 1.02.
Work on TTCATCGGCG yielded a switch fluorescence ratio of 1.
Sequence TCATTGGTTG has a switch fluorescence ratio of 0.993.
For ATTTTGCTAT, the switch fluorescence ratio was 1.04.
ATGCTCAGGC showed a switch fluorescence ratio of 0.983.
Work on TCACTTTAAA yielded a switch fluorescence ratio of 1.03.
TCTAGCACAT gave a switch fluorescence ratio of 1.18.
ACGTGAGCCC was tested, and the switch fluorescence ratio was 1.06.
TCGAGAATTG showed a switch fluorescence ratio of 1.
TCGGTGGTGT gave a switch fluorescence ratio of 0.945.
Work on AGGTCTTCGT yielded a switch fluorescence ratio of 0.989.
Sequence AATACTTAGC has a switch fluorescence ratio of 1.05.
Sequence AAATATAGAT has a switch fluorescence ratio of 1.01.
For CGGAATTCA, the switch fluorescence ratio was 1.02.
CAAGCTGTCG gave a switch fluorescence ratio of 1.01.
For TCGTCGTCAA, the switch fluorescence ratio was 1.49.
TCGCACTCTC gave a switch fluorescence ratio of 3.91.
ATGAAATCA gave a switch fluorescence ratio of 1.05.
CTCGCCACGG showed a switch fluorescence ratio of 1.16.
CAGGAGTGTG showed a switch fluorescence ratio of 1.01.
In the case of CTGGTTGTCG, the switch fluorescence ratio is reported as 1.02.
TATTTAAGAC showed a switch fluorescence ratio of 0.943.
Work on GGTTCAGTCA yielded a switch fluorescence ratio of 0.965.
For TGCCGCAGCG, the switch fluorescence ratio was 1.41.
TGGGGCAGAG showed a switch fluorescence ratio of 0.971.
CGTAGTGGGC was tested, and the switch fluorescence ratio was 1.07.
In the case of ACAGCTTGCG, the switch fluorescence ratio is reported as 1.09.
Sequence GGAGTTTGCT has a switch fluorescence ratio of 0.969.
TGGTGACAA was tested, and the switch fluorescence ratio was 1.
Work on TTCCGGGGAG yielded a switch fluorescence ratio of 0.989.
Work on CAGTTCAGCT yielded a switch fluorescence ratio of 1.04.
Work on TGAGCAAGAA yielded a switch fluorescence ratio of 2.29.
In the case of GGATATGGCT, the switch fluorescence ratio is reported as 0.992.
TGCACTAACA gave a switch fluorescence ratio of 1.21.
Work on GGCATGCTAT yielded a switch fluorescence ratio of 0.99.
Work on TTGATAGCGG yielded a switch fluorescence ratio of 1.04.
GCTTTAGTTT was tested, and the switch fluorescence ratio was 1.01.
GTTAACTTGG showed a switch fluorescence ratio of 0.988.
TATAGCGCGT gave a switch fluorescence ratio of 1.02.
Sequence ATACTGGTCT has a switch fluorescence ratio of 1.06.
For TTACCGACCC, the switch fluorescence ratio was 1.52.
GGACCGGGAA gave a switch fluorescence ratio of 1.03.
Work on TATATTGTG yielded a switch fluorescence ratio of 0.998.
For AGTTCGGTAG, the switch fluorescence ratio was 0.961.
Work on AAATTAGGAC yielded a switch fluorescence ratio of 1.05.
Sequence GGCTCCACTG has a switch fluorescence ratio of 1.06.
Sequence GGATCGTGTA has a switch fluorescence ratio of 0.999.
In the case of GGTGTGGGG, the switch fluorescence ratio is reported as 0.932.
TTCCCGGGTT was tested, and the switch fluorescence ratio was 1.09.
ACTAGGTTTG showed a switch fluorescence ratio of 1.07.
Sequence GGTTGGCTTG has a switch fluorescence ratio of 1.02.
TGGATCCCTT gave a switch fluorescence ratio of 1.
In the case of TACCAACGCG, the switch fluorescence ratio is reported as 1.04.
CTTCTCAAGG gave a switch fluorescence ratio of 1.
In the case of GGGACGAGAT, the switch fluorescence ratio is reported as 1.04.
TTGTCTTCCG gave a switch fluorescence ratio of 1.09.
For TTAATCATA, the switch fluorescence ratio was 1.04.
Sequence TCTGCAAGTC has a switch fluorescence ratio of 4.26.
GGTCGCTCGG gave a switch fluorescence ratio of 0.949.
